# Assay results from the supplement of paper PMC8728848.
# The other results are listed elsewhere or left out.
# B1: GSL-I-B4 (Griffonia simplicifolia) (protein)
# chain: NFWSDVEDSIIFQGDANTTAGTLQLCKTNQYGTPLQWSAGRALYSDPVQLWDNKTESVASFYTEFTFFLKITGNGPADGLAFFLAPPDSDVKDAGEYLGLFNKSTATQPSKNQVVAVEFDTWTNPNFPEPSYRHIGINVNSIVSVATKRWEDSDIFSGKIATARISYDGSAEILTVVLSYPDGSDYILSHSVDMRQNLPESVRVGISASTGNNQFLTVYILSWRFSSNLQSTSVKAAMEPEITRTVV
# What was measured:
# Test in all cases: glycan array binding signal (z-score within array); higher = stronger binding
# Settings in all cases: glycan notation: IUPAC condensed, linker removed
# [1] = target: Fuc(a1-2)[Gal(a1-3)]Gal(b1-4)GlcNAc(b1-2)Man(a1-3)[Fuc(a1-2)[Gal(a1-3)]Gal(b1-4)GlcNAc(b1-2)Man(a1-6)]Man(b1-4)GlcNAc(b1-4)GlcNAc
# Method in brief: (§1)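 Arrays were curated from the Consortium for Functional Glycomics database, 3228 in total, and kept only where the protein sequence was available. Binding is expressed as a within-array Z-score. This score was averaged across arrays of the same protein sequence at different concentrations or buffers and across linkers, and negative values can be read as non-binding.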
# [2] = target: Fuc(a1-2)[Gal(a1-3)]Gal(b1-4)GlcNAc(b1-2)Man(a1-3)[Fuc(a1-2)[Gal(a1-3)]Gal(b1-4)GlcNAc(b1-2)Man(a1-6)]Man(b1-4)GlcNAc(b1-4)[Fuc(a1-6)]GlcNAc
# Method in brief: as §1
# [3] = target: Fuc(a1-2)[Gal(a1-3)]Gal(b1-4)GlcNAc(b1-3)GalNAc
# Method in brief: as §1
# [4] = target: Fuc(a1-2)[Gal(a1-3)]Gal(b1-4)GlcNAc(b1-6)GalNAc
# Method in brief: as §1
# [5] = target: Fuc(a1-2)[Gal(a1-3)]Gal(b1-4)[Fuc(a1-3)]Glc
# Method in brief: as §1
# [6] = target: Fuc(a1-2)[Gal(a1-3)]Gal(b1-4)[Fuc(a1-3)]GlcNAc
# Method in brief: as §1
# [7] = target: Fuc(a1-2)[Gal(a1-3)]Gal(b1-4)[Fuc(a1-3)]GlcNAc(b1-3)GalNAc
# Method in brief: as §1
# [8] = target: Fuc(a1-2)[Gal(a1-4)]Gal(b1-4)GlcNAc
# Method in brief: as §1
# [9] = target: Fuc(a1-2)[GalNAc(a1-3)]Gal
# Method in brief: as §1
# [10] = target: Fuc(a1-2)[GalNAc(a1-3)]Gal(b1-3)GalNAc(a1-3)[Fuc(a1-2)]Gal(b1-4)GlcNAc
# Method in brief: as §1
# [11] = target: Fuc(a1-2)[GalNAc(a1-3)]Gal(b1-3)GalNAc(b1-3)Gal(a1-4)Gal(b1-4)Glc
# Method in brief: as §1
# [12] = target: Fuc(a1-2)[GalNAc(a1-3)]Gal(b1-3)GlcNAc
# Method in brief: as §1
# [13] = target: Fuc(a1-2)[GalNAc(a1-3)]Gal(b1-3)GlcNAc(b1-2)Man(a1-3)[Fuc(a1-2)[GalNAc(a1-3)]Gal(b1-3)GlcNAc(b1-2)Man(a1-6)]Man(b1-4)GlcNAc(b1-4)GlcNAc
# Method in brief: as §1
# [14] = target: Fuc(a1-2)[GalNAc(a1-3)]Gal(b1-3)GlcNAc(b1-2)Man(a1-3)[Fuc(a1-2)[GalNAc(a1-3)]Gal(b1-3)GlcNAc(b1-2)Man(a1-6)]Man(b1-4)GlcNAc(b1-4)[Fuc(a1-6)]GlcNAc
# Method in brief: as §1
# [15] = target: Fuc(a1-2)[GalNAc(a1-3)]Gal(b1-3)GlcNAc(b1-3)GalNAc
# Method in brief: as §1
# [16] = target: Fuc(a1-2)[GalNAc(a1-3)]Gal(b1-3)GlcNAc(b1-6)GalNAc
# Method in brief: as §1
# [17] = target: Fuc(a1-2)[GalNAc(a1-3)]Gal(b1-4)Glc
# Method in brief: as §1
# [18] = target: Fuc(a1-2)[GalNAc(a1-3)]Gal(b1-4)GlcNAc
# Method in brief: as §1
# [19] = target: Fuc(a1-2)[GalNAc(a1-3)]Gal(b1-4)GlcNAc(b1-2)Man
# Method in brief: as §1
# [20] = target: Fuc(a1-2)[GalNAc(a1-3)]Gal(b1-4)GlcNAc(b1-2)Man(a1-3)[Fuc(a1-2)[GalNAc(a1-3)]Gal(b1-4)GlcNAc(b1-2)Man(a1-6)]Man(b1-4)GlcNAc(b1-4)GlcNAc
# Method in brief: as §1
# [21] = target: Fuc(a1-2)[GalNAc(a1-3)]Gal(b1-4)GlcNAc(b1-2)Man(a1-3)[Fuc(a1-2)[GalNAc(a1-3)]Gal(b1-4)GlcNAc(b1-2)Man(a1-6)]Man(b1-4)GlcNAc(b1-4)[Fuc(a1-6)]GlcNAc
# Method in brief: as §1
# [22] = target: Fuc(a1-2)[GalNAc(a1-3)]Gal(b1-4)GlcNAc(b1-3)Gal(b1-4)GlcNAc
# Method in brief: as §1
# [23] = target: Fuc(a1-2)[GalNAc(a1-3)]Gal(b1-4)GlcNAc(b1-3)Gal(b1-4)GlcNAc(b1-3)Gal(b1-4)GlcNAc
# Method in brief: as §1
# [24] = target: Fuc(a1-2)[GalNAc(a1-3)]Gal(b1-4)GlcNAc(b1-3)GalNAc
# Method in brief: as §1
# [25] = target: Fuc(a1-2)[GalNAc(a1-3)]Gal(b1-4)GlcNAc(b1-3)[Fuc(a1-2)[GalNAc(a1-3)]Gal(b1-4)GlcNAc(b1-6)]GalNAc
# Method in brief: as §1
# [26] = target: Fuc(a1-2)[GalNAc(a1-3)]Gal(b1-4)GlcNAc(b1-6)GalNAc
# Method in brief: as §1
# [27] = target: Fuc(a1-2)[GalNAc(a1-3)]Gal(b1-4)[Fuc(a1-3)]GlcNAc
# Method in brief: as §1
# [28] = target: Fuc(a1-2)[GalNAc(a1-3)]Gal(b1-4)[Fuc(a1-3)]GlcNAc(b1-3)GalNAc
# Method in brief: as §1
# [29] = target: Fuc(a1-2)[GalNAc(a1-4)]Gal(b1-4)GlcNAc
# Method in brief: as §1
# [30] = target: Fuc(a1-2)[GalNAc(b1-3)]Gal
# Method in brief: as §1
# Fuc(a1-3)GlcNAc = target: Fuc(a1-3)GlcNAc
# Method in brief: as §1
# [31] = target: Fuc(a1-3)[Gal(b1-4)]Glc6S
# Method in brief: as §1
# [32] = target: Fuc(a1-3)[Gal(b1-4)]GlcNAc
# Method in brief: as §1
# [33] = target: Fuc(a1-3)[Gal(b1-4)]GlcNAc(b1-2)Man
# Method in brief: as §1
# [34] = target: Fuc(a1-3)[Gal(b1-4)]GlcNAc(b1-2)Man(a1-3)[Fuc(a1-3)[Gal(b1-4)]GlcNAc(b1-2)Man(a1-6)]Man(b1-4)GlcNAc(b1-4)GlcNAc
# Method in brief: as §1
# [35] = target: Fuc(a1-3)[Gal(b1-4)]GlcNAc(b1-2)Man(a1-3)[Fuc(a1-3)[Gal(b1-4)]GlcNAc(b1-2)Man(a1-6)]Man(b1-4)GlcNAc(b1-4)[Fuc(a1-6)]GlcNAc
# Method in brief: as §1
# [36] = target: Fuc(a1-3)[Gal(b1-4)]GlcNAc(b1-3)Gal(b1-3)[Fuc(a1-4)]GlcNAc
# Method in brief: as §1
# [37] = target: Fuc(a1-3)[Gal(b1-4)]GlcNAc(b1-3)Gal(b1-4)[Fuc(a1-3)]GlcNAc
# Method in brief: as §1
# [38] = target: Fuc(a1-3)[Gal(b1-4)]GlcNAc(b1-3)Gal(b1-4)[Fuc(a1-3)]GlcNAc(b1-3)Gal(b1-4)[Fuc(a1-3)]GlcNAc
# Method in brief: as §1
# [39] = target: Fuc(a1-3)[Gal(b1-4)]GlcNAc(b1-3)GalNAc
# Method in brief: as §1
# [40] = target: Fuc(a1-3)[Gal(b1-4)]GlcNAc(b1-6)GalNAc
# Method in brief: as §1
# [41] = target: Fuc(a1-3)[Gal(b1-4)]GlcNAc(b1-6)[Gal(b1-3)GlcNAc(b1-3)]Gal(b1-4)Glc
# Method in brief: as §1
# [42] = target: Fuc(a1-3)[Gal(b1-4)]GlcNAc6S
# Method in brief: as §1
# [43] = target: Fuc(a1-3)[Gal3S(b1-4)]Glc
# Method in brief: as §1
# [44] = target: Fuc(a1-3)[Gal3S(b1-4)]GlcNAc
# Method in brief: as §1
# [45] = target: Fuc(a1-3)[Gal3S(b1-4)]GlcNAc6S
# Method in brief: as §1
# [46] = target: Fuc(a1-3)[GalNAc(b1-4)]GlcNAc
# Method in brief: as §1
# [47] = target: Fuc(a1-3)[GalNAc(b1-4)]GlcNAc6S
# Method in brief: as §1
# Fuc(a1-4)GlcNAc = target: Fuc(a1-4)GlcNAc
# Method in brief: as §1
# Fuc(b1-3)GlcNAc = target: Fuc(b1-3)GlcNAc
# Method in brief: as §1
# Gal(a1-2)Gal = target: Gal(a1-2)Gal
# Method in brief: as §1
# Gal(a1-3)Gal = target: Gal(a1-3)Gal
# Method in brief: as §1
# Gal(a1-3)Gal(b1-3)GlcNAc = target: Gal(a1-3)Gal(b1-3)GlcNAc
# Method in brief: as §1
# [48] = target: Gal(a1-3)Gal(b1-3)GlcNAc(b1-2)Man
# Method in brief: as §1
# [49] = target: Gal(a1-3)Gal(b1-3)GlcNAc(b1-2)Man(a1-3)[Gal(a1-3)Gal(b1-3)GlcNAc(b1-2)Man(a1-6)]Man(b1-4)GlcNAc(b1-4)GlcNAc
# Method in brief: as §1
# [50] = target: Gal(a1-3)Gal(b1-3)GlcNAc(b1-3)GalNAc
# Method in brief: as §1
# [51] = target: Gal(a1-3)Gal(b1-3)GlcNAc(b1-6)GalNAc
# Method in brief: as §1
# [52] = target: Gal(a1-3)Gal(b1-3)[Fuc(a1-4)]GlcNAc(b1-2)Man(a1-3)[Gal(a1-3)Gal(b1-3)[Fuc(a1-4)]GlcNAc(b1-2)Man(a1-6)]Man(b1-4)GlcNAc(b1-4)GlcNAc
# Method in brief: as §1
# Gal(a1-3)Gal(b1-4)Glc = target: Gal(a1-3)Gal(b1-4)Glc
# Method in brief: as §1
# Gal(a1-3)Gal(b1-4)GlcNAc = target: Gal(a1-3)Gal(b1-4)GlcNAc
# Method in brief: as §1
binder,measurement,setting,value
B1,glycan array binding signal (z-score),[1],3.69
same,glycan array binding signal (z-score),[2],0.628
same,glycan array binding signal (z-score),[3],-0.022
same,glycan array binding signal (z-score),[4],-0.198
same,glycan array binding signal (z-score),[5],0.489
same,glycan array binding signal (z-score),[6],1.68
same,glycan array binding signal (z-score),[7],-0.039
same,glycan array binding signal (z-score),[8],0.231
same,glycan array binding signal (z-score),[9],-0.184
same,glycan array binding signal (z-score),[10],-0.157
same,glycan array binding signal (z-score),[11],-0.202
same,glycan array binding signal (z-score),[12],-0.157
same,glycan array binding signal (z-score),[13],-0.171
same,glycan array binding signal (z-score),[14],-0.204
same,glycan array binding signal (z-score),[15],-0.125
same,glycan array binding signal (z-score),[16],-0.208
same,glycan array binding signal (z-score),[17],-0.135
same,glycan array binding signal (z-score),[18],-0.133
same,glycan array binding signal (z-score),[19],-0.201
same,glycan array binding signal (z-score),[20],-0.195
same,glycan array binding signal (z-score),[21],-0.191
same,glycan array binding signal (z-score),[22],-0.165
same,glycan array binding signal (z-score),[23],-0.056
same,glycan array binding signal (z-score),[24],-0.153
same,glycan array binding signal (z-score),[25],-0.199
same,glycan array binding signal (z-score),[26],-0.206
same,glycan array binding signal (z-score),[27],-0.138
same,glycan array binding signal (z-score),[28],-0.011
same,glycan array binding signal (z-score),[29],-0.092
same,glycan array binding signal (z-score),[30],-0.12
same,glycan array binding signal (z-score),Fuc(a1-3)GlcNAc,-0.127
same,glycan array binding signal (z-score),[31],-0.149
same,glycan array binding signal (z-score),[32],-0.153
same,glycan array binding signal (z-score),[33],-0.198
same,glycan array binding signal (z-score),[34],-0.131
same,glycan array binding signal (z-score),[35],-0.008
same,glycan array binding signal (z-score),[36],-0.174
same,glycan array binding signal (z-score),[37],-0.177
same,glycan array binding signal (z-score),[38],-0.189
same,glycan array binding signal (z-score),[39],-0.197
same,glycan array binding signal (z-score),[40],-0.151
same,glycan array binding signal (z-score),[41],-0.155
same,glycan array binding signal (z-score),[42],-0.2
same,glycan array binding signal (z-score),[43],-0.171
same,glycan array binding signal (z-score),[44],-0.11
same,glycan array binding signal (z-score),[45],-0.145
same,glycan array binding signal (z-score),[46],-0.134
same,glycan array binding signal (z-score),[47],-0.208
same,glycan array binding signal (z-score),Fuc(a1-4)GlcNAc,-0.23
same,glycan array binding signal (z-score),Fuc(b1-3)GlcNAc,-0.158
same,glycan array binding signal (z-score),Gal(a1-2)Gal,5.94
same,glycan array binding signal (z-score),Gal(a1-3)Gal,0.22
same,glycan array binding signal (z-score),Gal(a1-3)Gal(b1-3)GlcNAc,0.902
same,glycan array binding signal (z-score),[48],1.88
same,glycan array binding signal (z-score),[49],0.045
same,glycan array binding signal (z-score),[50],0.422
same,glycan array binding signal (z-score),[51],0.358
same,glycan array binding signal (z-score),[52],0.594
same,glycan array binding signal (z-score),Gal(a1-3)Gal(b1-4)Glc,0.147
same,glycan array binding signal (z-score),Gal(a1-3)Gal(b1-4)GlcNAc,2
